Read counts are not given, so values of variants with three or more changes are uncertain.

Sequences and labels used below:
B1: LINE1-mini (parent)
chain: GGCAGAGCUCAACACAGCGUGGCAAAGUGGCUGUGGCUAGACUGCC

Variants of B1 are the subject of the series. The series can be described thus: self-cleavage, relative activity (ratio to wild type); higher = more cleavage; in vitro, sequencing; the parent is a self-cleaving ribozyme.
As to G1C G19U G21A U32G, the self-cleavage was found to be 0.02. Then G1U A4C C13A, with 0.06; and G1C G19A A39C, with 0.02.

As to G1C G21U A26G U34A, the self-cleavage was 0.04.

On to G1U C3G A6G C13G A14U U28C A39U, for which the self-cleavage is 0.02. Then G1U A39C A41C, with 0.04. G1C G21C G36A C42U: the self-cleavage is 0.04. Then G1C U28G G36U, with 0.06.

Consider G1U A4U C31A, for which the self-cleavage was 0.02. Then G1U C8A U9C C15U, with 0.01.

As to G1C G22U C23A, the self-cleavage turned out to be 0.2.

In the case of G1U A11U G22A G33A C37A, the self-cleavage is 0.01.

For G1C U9C C15A G21U U34G C46U, the self-cleavage came to 0.01.

With G1U C3A A16G U32A G36A, the self-cleavage is 0.08.

On to G1U A11U C15A A26G G30U C37G, for which the self-cleavage stood at 0.02. Consider G1U A26U C31A, for which the self-cleavage amounted to 0.03. Then G1U A4U A11U C13A, with 0.01; and G1C G7U G21U, with 0.04. With G1U A12G C13U, the self-cleavage is 0.02. The same measure for G1C G19U G21A G33C: 0; for G1C G27U U34G G40U: 0.01. Then G1U A24G U28A G29C C31U G36U, with 0.02; and G1C G29U C31G G40U, with 0. Then G1U A11G A25C G27U A41C, with 0; and G1U A24G A39G, with 0.02. Take G1C U9G C10U A39C G40U A41U C45G: the self-cleavage worked out at 0.01.

As to G1U A14G U34C, the self-cleavage is 0.33. Then G1U C3U C13A, with 0.2; and G1U A6C G7U C18A G33U U38A C45U, with 0.01.

As for G1U A4G C23G A24U G40C, the self-cleavage came to 0.08. Then G1U A24U G29A U32G C46U, with 0.44. Consider G1U A24C A25G, for which the self-cleavage is 0.35. Then G1U A16G G21A U28C C37G U38C, with 0.01; and G1U A4C C18G C23U G29A C31U C42U, with 0.03.

On to G1U A6G C46U, for which the self-cleavage came to 0.07. Then G1U C8A U20G G30C G44A, with 0.17; and G1C G7U C15U G21A U34G, with 0.05; and G1U C8A G22A A24C G44A, with 0.11. Take G1U A12C G29U G35A G36A A41C: the self-cleavage was 0. Then G1C G5U C45G, with 0.05; and G1U A11U U28G, with 0.03; and G1C G22C A25U, with 0.09. Then G1U A25C G33A, with 0.02; and G1U C3A G17U C42G, with 0.43. Then G1U A14G A16U A39U, with 0.03.

Take G1U A6C G44A: the self-cleavage was 0.09.

Consider G1U C3A G33C U34C U38G, for which the self-cleavage is 0.09.

Take G1C G19C G33A: the self-cleavage was 0.02. The same measure for G1U A39C G40U: 0.03. As to G1U C3U A4U C10A C23A C42A C46U, the self-cleavage was determined as 0.03. The same measure for G1U A11C C13A C37A: 0.01. As to G1C G30U C42G, the self-cleavage was 0.01. G1U C3U G7A A24C: the self-cleavage amounted to 0.14. The same measure for G1C G19U A25U A41U: 0.02; for G1C G30A C37U: 0.08; for G1C G29U A41G: 0. Consider G1C G7C U9G A39C, for which the self-cleavage is 0.01. Then G1C G5U G22U G40C U43G, with 0; and G1U A6G C23U, with 0.05; and G1U C8A A25U, with 0.06. Then G1C G21U C31A, with 0.04; and G1U A12C U20A G44A, with 0; and G1C G36C A39U C46A, with 0.

For G1C G30U U34A, the self-cleavage was 0.02. Then G1U A6C C8G C13A U34G G36A A39U G40U, with 0; and G1C U32A C37U, with 0.01; and G1U A12C U38A A39U, with 0.01. Then G1C U20C G29A U38C, with 0.18; and G1C U20G G27C C31A G36A, with 0.01; and G1C G30U C45A, with 0.71. Then G1U C8G G30C, with 0.02. G1U A26U G27A C31U: the self-cleavage was 0.05. With G1C U9C G33A, the self-cleavage worked out at 0.02. In the case of G1C G19C A24U, the self-cleavage was 0.03. Turning to G1C G7U U20A G22C A26C C46U, the self-cleavage amounted to 0.02. As to G1U A14U A41G, the self-cleavage worked out at 0.04. The same measure for G1U A26U G29U C42A: 0.11; for G1C G5U C18A G29A C46A: 0.02. As to G1C G27C C45G, the self-cleavage turned out to be 0.05. Then G1U C3U A11C A24C U28C C31G, with 0.02; and G1C G30C G36U U43C C45U, with 0.01.

For the variant G1U A16G U32A G35U, the self-cleavage turned out to be 0.03. Then G1U C8A A14U G29U C46A, with 0.06; and G1U A4C C31U, with 0.03. The same measure for G1C U28A A41U: 0.08; for G1C G7U U28A G35A: 0.01; for G1C G36A A41U C46A: 0.09. On to G1U A11C G21U, for which the self-cleavage is 0.05. The same measure for G1C G7A C15U G40C: 0.06. Then G1U A4G A41G, with 0.16. Turning to G1U A11C A25G C37G C45A, the self-cleavage was 0. Then G1U C3G C15U G22U G30U G35C, with 0.2; and G1U C8G G44A, with 0.05; and G1C G21U G30A, with 0.37. Turning to G1U C3A U34A A39U, the self-cleavage was 0.02. Consider G1C U34C G40U C45A, for which the self-cleavage was 0.03. Consider G1C U32G G33C U38C, for which the self-cleavage came out at 0. Then G1U A11G C15A U34C, with 0.04; and G1U C3A G7U U9A C10A U32A G33C, with 0.14. The same measure for G1C G22U U28C: 0.08; for G1U A4U A11C G22U C23A G33U C45A: 0.02. Then G1U A16C G36U G44A, with 0.05; and G1C G21U C37U, with 0.01; and G1U A26G C31U U34C U38A, with 0. Take G1C U20A C42U: the self-cleavage amounted to 0.04. Then G1C G36A G40A, with 0.09. In the case of G1U C8A G27C, the self-cleavage was 0.04. The same measure for G1U A4G A14U G30A A39C: 0.05; for G1U A6U A25C: 0.13; for G1U A4C U9A C31G G35C: 0.01. With G1C G19U G35C U43G G44A, the self-cleavage came out at 0.04. Take G1U A16U G36A C45U: the self-cleavage is 0.

Consider G1U A14C G21U U38A, for which the self-cleavage turned out to be 0.04. Then G1U C3G C18G G19A A25U G29C, with 0.11; and G1U A4G C13A A14C G40U, with 0.04; and G1U A4C C10A C15U, with 0.01. The same measure for G1U A4C G17U C37G U38C G40A: 0.01; for G1U C8G C10U U38A: 0.04. The same measure for G1U A16C C46A: 0.04; for G1U A25U A26U: 0.29.

For the variant G1U C3A A12C A16C C18A G35A C37A, the self-cleavage stood at 0.01. As for G1C G30C U38G, the self-cleavage was 0.02.

In the case of G1U A6C G7C U9A C13U G29U, the self-cleavage came to 0.05. With G1U A6G C15A, the self-cleavage was 0.03. Then G1U A12C G29U, with 0.05; and G1U C3A A6U G27C C31U A41G C46G, with 0.07; and G1C U32A G33U C45A, with 0.04. Then G1U C3G C8A G33U, with 0.15; and G1U C3A A25C U28A, with 0.26. With G1U A4C A11G G22A, the self-cleavage is 0.04. The same measure for G1U A11U C13U: 0. With G1U C3A C10A A16C C18A, the self-cleavage was 0.03. The same measure for G1U C3G C10A G35U U43C: 0.01. The same measure for G1U C3G G21U A26U A41U: 0.13.

Regarding G1U A6C C18A A26G G40U, the self-cleavage came to 0.02. For the variant G1U A12C G22U G29C, the self-cleavage stood at 0.

For G1U A14C G19A G30C, the self-cleavage was 0.03. As for G1U A26U C37U, the self-cleavage was 0.12. Then G1U C3G A16C C18A A24U G30A, with 0.09; and G1U A4C U34C, with 0.04.

With G1U A11G C13A G19C, the self-cleavage was determined as 0.01.

Consider G1U A12C C46A, for which the self-cleavage stood at 0.01. The same measure for G1U A4C A41G C46G: 0.13; for G1U C8A G21A G27U: 0.1. Then G1U A24U U28C G33C, with 0.08. The same measure for G1C G17C C23G G29U: 0.01. With G1U A4G G7U C23G, the self-cleavage was 0.11. As for G1C G7U A26G, the self-cleavage was 0.08. Then G1U A24G A41C, with 0.02; and G1U A6U C10A, with 0.01. Then G1U A6C G17U, with 0.01; and G1U C3G A16C G21C G33U G44U, with 0.05.

In the case of G1U A4C G21U G33U, the self-cleavage came out at 0.04. Then G1U A26G G33A C37G, with 0.03. On to G1C G44A C45A, for which the self-cleavage was determined as 0.01. As to G1U A6C C13A, the self-cleavage amounted to 0.01. In the case of G1U A4G G5C G30U G40C C46U, the self-cleavage was 0.08.

For G1U A6G G7C, the self-cleavage worked out at 0.01. Then G1U A14U C42G, with 0.08; and G1C G7A A11G A16C, with 0.03; and G1U A12G U20A A39C, with 0.01. The same measure for G1U A6C C15G U34C: 0.02; for G1C G19U C23A U32G: 0.02; for G1C G5U U32A C37G: 0.01. Turning to G1U A16G G21U C46U, the self-cleavage worked out at 0.16.

For the variant G1U C8A A16C A26U A41G, the self-cleavage stood at 0.06. The same measure for G1U A14G G22U U38G C46A: 0.

Values taken from the RNAGym collection of RNA variant scans (doi:10.7554/elife.90254).
